The text below walks through data of publication PMC12820563.

This is one part of the list. The list includes weakly bound sequences.

For the experiment, the target named is T1, MBP-FoxP3dN (UniProt Q99JB6).
T1 sequence: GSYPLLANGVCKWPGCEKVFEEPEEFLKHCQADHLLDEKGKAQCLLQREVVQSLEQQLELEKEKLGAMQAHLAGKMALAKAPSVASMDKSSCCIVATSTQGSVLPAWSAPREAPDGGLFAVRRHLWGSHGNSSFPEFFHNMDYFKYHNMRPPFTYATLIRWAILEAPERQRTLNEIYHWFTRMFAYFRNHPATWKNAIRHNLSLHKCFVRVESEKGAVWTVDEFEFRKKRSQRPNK
Description: PD-seq (MBP pull-down with sequencing). The settings on record: 20 mM Tris-HCl pH 7.5, 100 mM NaCl, 1.5 mM MgCl2, 0.4 uM protein, 0.1 uM dsDNA library, 30 min, room temperature, amylose pull-down; high values mean tight binding; double strand, one strand shown.
Turning to “GATGATTGTTCTCCCAGCTGATGAATTTGCGAGGTCGAGTAAACAAATTTTCCTAATCTTTCTGTTCAAGCGCCATCTAC”, the binding signal (RPM ratio (pull-down/input)) is 0.628. The figure for “GATGATTGTTCTCCCAGCTGATGAATTATTATCTTCGAGTAAACAAATTTTCCTAATCTTTCTGTTCAAGCGCCATCTAC” is 0.879. Turning to “GATGATTGTTCTCCCAGCTGATGAATTCTTCCTATCGAGTAAACAAATTTTCCTAATCTTTCTGTTCAAGCGCCATCTAC”, the binding signal (RPM ratio (pull-down/input)) was 0.273.

Turning to “GATGATTGTTCTCCCAGCTGATGAATTTAAGGGCTCGAGTAAACAAATTTTCCTAATCTTTCTGTTCAAGCGCCATCTAC”, the binding signal (RPM ratio (pull-down/input)) amounted to 0.223.

Regarding “GATGATTGTTCTCCCAGCTGATGAATTGTGGCCATCGAGTAAACAAATTTTCCTAATCTTTCTGTTCAAGCGCCATCTAC”, the binding signal (RPM ratio (pull-down/input)) was 2.14. The value for “GATGATTGTTCTCCCAGCTGATGAATTTCTTACGTCGAGTAAACAAATTTTCCTAATCTTTCTGTTCAAGCGCCATCTAC” was 0.257; that for “GATGATTGTTCTCCCAGCTGATGAATTGATCGTGTCGAGTAAACAAATTTTCCTAATCTTTCTGTTCAAGCGCCATCTAC” was 0.703. The figure for “GATGATTGTTCTCCCAGCTGATGAATTCACACAGTCGAGTAAACAAATTTTCCTAATCTTTCTGTTCAAGCGCCATCTAC” is 0.304; for “GATGATTGTTCTCCCAGCTGATGAATTAGTATTATCGAGTAAACAAATTTTCCTAATCTTTCTGTTCAAGCGCCATCTAC” it is 2.21. The value for “GATGATTGTTCTCCCAGCTGATGAATTCCTCTGGTCGAGTAAACAAATTTTCCTAATCTTTCTGTTCAAGCGCCATCTAC” was 0.195. In the case of “GATGATTGTTCTCCCAGCTGATGAATTAATGCCATCGAGTAAACAAATTTTCCTAATCTTTCTGTTCAAGCGCCATCTAC”, the binding signal (RPM ratio (pull-down/input)) amounted to 3.34. As to “GATGATTGTTCTCCCAGCTGATGAATTATAAGGTTCGAGTAAACAAATTTTCCTAATCTTTCTGTTCAAGCGCCATCTAC”, the binding signal (RPM ratio (pull-down/input)) is 0.325. The value for “GATGATTGTTCTCCCAGCTGATGAATTGAATGCCTCGAGTAAACAAATTTTCCTAATCTTTCTGTTCAAGCGCCATCTAC” was 1.13; that for “GATGATTGTTCTCCCAGCTGATGAATTACTCCCGTCGAGTAAACAAATTTTCCTAATCTTTCTGTTCAAGCGCCATCTAC” was 0.241; that for “GATGATTGTTCTCCCAGCTGATGAATTGAGTTGCTCGAGTAAACAAATTTTCCTAATCTTTCTGTTCAAGCGCCATCTAC” was 1.28. The figure for “GATGATTGTTCTCCCAGCTGATGAATTTCGGGAGTCGAGTAAACAAATTTTCCTAATCTTTCTGTTCAAGCGCCATCTAC” is 0.232; for “GATGATTGTTCTCCCAGCTGATGAATTCGTCTGCTCGAGTAAACAAATTTTCCTAATCTTTCTGTTCAAGCGCCATCTAC” it is 0.519. The figure for “GATGATTGTTCTCCCAGCTGATGAATTGAGTGCTTCGAGTAAACAAATTTTCCTAATCTTTCTGTTCAAGCGCCATCTAC” is 0.713. On to “GATGATTGTTCTCCCAGCTGATGAATTTCTAGAGTCGAGTAAACAAATTTTCCTAATCTTTCTGTTCAAGCGCCATCTAC”, for which the binding signal (RPM ratio (pull-down/input)) turned out to be 0.185. For “GATGATTGTTCTCCCAGCTGATGAATTATGATCTTCGAGTAAACAAATTTTCCTAATCTTTCTGTTCAAGCGCCATCTAC”, the binding signal (RPM ratio (pull-down/input)) was 0.626. With “GATGATTGTTCTCCCAGCTGATGAATTGAATTGTTCGAGTAAACAAATTTTCCTAATCTTTCTGTTCAAGCGCCATCTAC”, the binding signal (RPM ratio (pull-down/input)) was determined as 2.02. The figure for “GATGATTGTTCTCCCAGCTGATGAATTCATACTGTCGAGTAAACAAATTTTCCTAATCTTTCTGTTCAAGCGCCATCTAC” is 0.429; for “GATGATTGTTCTCCCAGCTGATGAATTCTACTACTCGAGTAAACAAATTTTCCTAATCTTTCTGTTCAAGCGCCATCTAC” it is 0.369.

Consider “GATGATTGTTCTCCCAGCTGATGAATTAGTGTTCTCGAGTAAACAAATTTTCCTAATCTTTCTGTTCAAGCGCCATCTAC”, for which the binding signal (RPM ratio (pull-down/input)) is 3.2. The value for “GATGATTGTTCTCCCAGCTGATGAATTATCGAGATCGAGTAAACAAATTTTCCTAATCTTTCTGTTCAAGCGCCATCTAC” was 0.249; that for “GATGATTGTTCTCCCAGCTGATGAATTGAGGCACTCGAGTAAACAAATTTTCCTAATCTTTCTGTTCAAGCGCCATCTAC” was 1.23; that for “GATGATTGTTCTCCCAGCTGATGAATTTCATCCGTCGAGTAAACAAATTTTCCTAATCTTTCTGTTCAAGCGCCATCTAC” was 0.371.

Regarding “GATGATTGTTCTCCCAGCTGATGAATTTCTTCTATCGAGTAAACAAATTTTCCTAATCTTTCTGTTCAAGCGCCATCTAC”, the binding signal (RPM ratio (pull-down/input)) came out at 0.265. The value for “GATGATTGTTCTCCCAGCTGATGAATTAAGGTTCTCGAGTAAACAAATTTTCCTAATCTTTCTGTTCAAGCGCCATCTAC” was 0.672.

Turning to “GATGATTGTTCTCCCAGCTGATGAATTACTGTTATCGAGTAAACAAATTTTCCTAATCTTTCTGTTCAAGCGCCATCTAC”, the binding signal (RPM ratio (pull-down/input)) is 1.08. As for “GATGATTGTTCTCCCAGCTGATGAATTAAATGTTTCGAGTAAACAAATTTTCCTAATCTTTCTGTTCAAGCGCCATCTAC”, the binding signal (RPM ratio (pull-down/input)) is 1.12.
